Test results as given in PubChem BioAssay AID651820 (National Center for Advancing Translational Sciences (NCATS), 2012).
The campaign covered roughly 340,000 compounds. About 12,000 (3.5%) were called active. The shares of active, inactive and inconclusive entries below differ from those in the screen. The call rests on the fitted dose curve; in most records, active means well fitted inhibition curve with a large enough effect; inconclusive means small, poorly fitted or top-dose-only effect, or another doubt; inactive means no such curve, though single readings can be large or run the other way. No potency is given beside an inconclusive call; the fits are too rough.

Assay: qHTS Assay for Inhibitors of Hepatitis C Virus (HCV)
Conditions: Huh7.5.1 HCVcc-Cre (HCVcc is cell-culture hepatitis C virus) infection, luciferase reporter, 44 h; activity change, negative = inhibition: at 41.8 µM (top of the series) unless noted
Procedure, shortened: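 Cells seeded at 1,000/well and cultured 4 h, then compounds added followed by HCVcc-Cre virus (~0.5 moi). After 44 h further culture, luciferase substrate was added, plates held 15 min at room temperature, and luminescence read for 15 sec.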
On the % scale 0 is the no-effect control and ±100 the full control effect; potency means the concentration at half of the fitted maximal effect; tags describe the fitted curve by direction and shape.

SMILES | Potency | activity change, negative = inhibition
CS(=O)(=O)Nc1ccc([N+](=O)[O-])cc1Oc1ccccc1 | inactive | –
COc1cc(C)nc(-n2nc(C)cc2OC)n1 | inconclusive [inhibitor, single point] | –
Cc1ccc2nc(-c3cccc(NC(=O)c4ccc5c(c4)OCCO5)c3)oc2c1 | inconclusive [inhibitor, partial curve] | –
O=S(=O)(c1ccc(OCC(O)CNC23CC4CC(CC(C4)C2)C3)c(Cl)c1)N1CCOCC1 (stereo not drawn) | inconclusive [inhibitor, single point] | –
COc1cccc(/C=C/C(=O)OCC(=O)NCCC2=CCCCC2)c1OC | inconclusive [inhibitor, single point] | –
CCOC(=O)c1c(NC(=O)c2ccco2)sc2c1CCCC2 | inconclusive [inhibitor, single point] | –
COc1ccc(NC(=O)c2sc(N3CCOCC3)nc2-c2ccccc2)c(OC)c1 | inconclusive [inhibitor, partial curve] | –
Cc1onc(-c2ccccc2)c1-c1csc(N/N=C/c2ccccc2)n1 | – | inactive: -1.01%
CCOc1ccc(N(C)S(=O)(=O)c2ccc(C)c(C(=O)NCCc3ccc(OC)cc3)c2)cc1 | inconclusive [inhibitor, full curve, poor fit] | –
CC(O)CN(CC(C)O)c1ccc2c(c1)Cc1cc([N+](=O)[O-])ccc1-2 (stereo not drawn) | inconclusive [inhibitor, single point] | –
O=C(Cc1cn(Cc2cccc(Cl)c2)c2ccccc12)N1CCCCCC1 | inconclusive [inhibitor, single point] | –
CC1=C(C(=O)OCc2ccccc2)C(c2cccc([N+](=O)[O-])c2)NC(=O)N1 (stereo not drawn) | inconclusive [inhibitor, partial curve] | –
O=C(CNC(=O)c1sc2ccccc2c1Cl)NCc1ccc(F)cc1 | inconclusive [inhibitor, single point] | –
Cc1ccccc1C(=O)NC(CC(C)C)C(=O)Nc1cccc(S(=O)(=O)N(C)C)c1 (stereo not drawn) | – | inactive: 9.7%
CCCCn1c(=N)n(CC(=O)c2ccc(Br)s2)c2ccccc21 | inconclusive [inhibitor, partial curve] | –
O=C(CSc1nnnn1-c1ccccc1F)Nc1nc2ccccc2s1 | inconclusive [inhibitor, full curve, poor fit] | –
CNC(=O)c1ccsc1NC(=O)CCS(=O)(=O)c1ccccc1 | – | inactive: -9.43%
COc1ccc(/C=C/C(=O)c2ccc3c4c(cccc24)CC3)cc1OC | inconclusive [inhibitor, partial curve] | –
